Laboratory results reported in PubChem BioAssay AID504832 (National Center for Advancing Translational Sciences (NCATS), 2011).
The whole screen tested about 310,000 compounds, of which about 18,000 (5.8%) were called active. The shares of active, inactive and inconclusive entries below differ from those in the screen. Calls come from the whole dose curve; as a rule, active = well fitted inhibition curve with a large enough effect; inconclusive = small, poorly fitted or top-dose-only effect, or another doubt; inactive = no such curve, though single readings can be large or run the other way. No potency is given beside an inconclusive call; the fits are too rough.
% is set by controls: 0 for no effect and ±100 for the full control effect; potency is the fitted concentration of half-maximal effect; tags give direction and shape of the fitted curve.

Assay: Primary qHTS for delayed death inhibitors of the malarial parasite plastid, 48 hour incubation
Settings: P. falciparum luciferase growth in erythrocytes; series mostly up to 28.7 µM
Procedure, shortened: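 Cell-based growth assay: transgenic P. falciparum expressing firefly luciferase, cultured in red cells within RPMI 1640 containing 0.5% w/v Albumax, 24 mM bicarbonate and gentamycin. A drop in luciferase activity indicates inhibition.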
For `COCCn1cnc2c1c(=O)n(CC(=O)Nc1cc(C)on1)c(=O)n2Cc1ccccc1`, the Potency was inconclusive [inhibitor, partial curve, poor fit]. With `CN1C(C(=O)NCC2CC2)CC2Cn3c(nc4ccccc43)C21` (stereo not given) the Potency was “inactive”. For `CSc1nnc2c3c4c(sc3nc(-n3nc(C)cc3C)n12)COC(C)(C)C4`, the Potency was inconclusive [inhibitor, single point]. For `Cc1ccc(C2C(C=Nc3c(C)n(C)n(-c4ccccc4)c3=O)=C(c3ccccc3)Oc3ccccc32)cc1` (stereo not given), the Potency was active: 8.28 µM. For `COc1cc2c(cc1OC)C(C)N(C(=O)CCN1C(=O)C3C4C=CC(C4)C3C1=O)CC2` (stereo not given), the Potency was “inactive”. In the case of `Cc1cc(C)cc(N(C(=O)c2sc(C)nc2C)C(C(=O)NCc2ccco2)c2ccccc2)c1` (stereo not given), the Potency is reported as inconclusive [inhibitor, single point]. For `CCCOc1ccc(C2C(=O)N(C3CCCCC3)CC(=O)N2C2CC2)cc1OC` (stereo not given), the Potency was inconclusive [inhibitor, single point]. With `Cc1cc(NC(=O)c2ccc(Cn3nc(C)c(Br)c3C)o2)no1` the Potency was inconclusive [inhibitor, partial curve]. With `COc1cc(S(=O)(=O)N(CCc2ccccc2)Cc2cccs2)ccc1-n1cnnn1` the Potency was inconclusive [inhibitor, single point]. With `CC(Cc1ccccc1)C(=O)Nc1ccccc1` (stereo not given) the Potency was “inactive”. For `COc1ccc(C=O)cc1COc1ccc(Cl)cc1[N+](=O)[O-]`, the Potency was “inactive”. For `CN(CC(=O)NCc1ccco1)CC(=O)Nc1c(Cl)cccc1Cl`, the Potency was “inactive”. For `Cc1cc(C)nc(-n2nc(C)c(Sc3ccc(F)cc3)c2N)n1`, the Potency was inconclusive [inhibitor, partial curve, poor fit]. With `O=c1cc(N2CCCCC2)c(-c2ccccc2)nn1Cc1c(Cl)cccc1Cl` the Potency was inconclusive [inhibitor, full curve]. For `COc1ccc(/C=C/C(=O)Nc2cc(C)nn2-c2nc3ccccc3[nH]2)cc1`, the Potency was inconclusive [inhibitor, single point]. With `CCCCn1c(N)c(N(CC(C)C)C(=O)C2CCCO2)c(=O)[nH]c1=O` (stereo not given) the Potency was “inactive”. With `CN(C)C(CNC(=O)c1ccccc1OCc1ccc(Cl)cc1)c1ccco1` (stereo not given) the Potency was inconclusive [inhibitor, partial curve, poor fit]. With `CCCCn1c(=N)n(CCOc2ccc(C)cc2)c2ccccc21` the Potency was active: 7.38 µM. In the case of `CNc1ccccc1NC(=O)CCn1c(=S)oc2ccccc21`, the Potency is reported as inconclusive [inhibitor, partial curve, poor fit]. For `Cc1cc(N)n2nc(C(F)(F)F)nc2n1`, the activity change, negative = inhibition was inactive: -30.4% [at 5.75 µM]. In the case of `CC(=O)Nc1ccc2c(CSc3nnc(-c4cccnc4)n3-c3ccc(C)cc3C)cc(=O)oc2c1`, the Potency is reported as inconclusive [inhibitor, partial curve, poor fit]. For `C/C=C(\C)c1nnc(NC(=O)OCC)s1`, the Potency was “inactive”. For `CN(CC(=O)Nc1ccc(Cl)c(C(F)(F)F)c1)C(=O)C1CC(=O)N(C2CCCC2)C1` (stereo not given), the Potency was inconclusive [inhibitor, single point]. For `COc1cccc(CNC(=O)CN(C)S(=O)(=O)c2ccc(Br)s2)c1`, the Potency was “inactive”. With `O=c1[nH]c2ccccc2c2cn(-c3ccccc3)nc12` the Potency was “inactive”. With `CCC(=O)Nc1ccc(C(=O)n2ccc(C)n2)cc1` the Potency was “inactive”. With `N#CC(c1cccc(Cl)c1)c1ccc2c(C(F)(F)F)cc(C(F)(F)F)nc2n1` (stereo not given) the Potency was inconclusive [inhibitor, partial curve, poor fit]. With `Cc1ccc(-n2ncc(C(=O)Nc3cc(Cl)ccc3Cl)c2C2CCNCC2)cc1` the Potency was inconclusive [inhibitor, partial curve, poor fit]. With `COc1ccc(CCN(C(=S)Nc2ccccc2)C2CC(=O)N(c3ccccc3)C2=O)cc1` (stereo not given) the Potency was inconclusive [inhibitor, single point]. With `CCN1CCN(C(=O)c2ccc(S(=O)(=O)Nc3ccccc3)cc2)CC1` the Potency was inconclusive [inhibitor, single point]. For `CC1CCC(NC(=O)C(C)N2C(=O)C3CCCCC3C2=O)CC1` (stereo not given), the Potency was “inactive”. With `O=C(CN1C(=O)COc2ccc(Cl)cc21)N1CCOCC1` the Potency was inconclusive [inhibitor, partial curve, poor fit]. With `O=C(O)C12CC3CC(C1)CC(n1ncc(NCc4ccccc4)c(Cl)c1=O)(C3)C2` the Potency was inconclusive [inhibitor, partial curve, poor fit]. For `CC(C)(C)NC(=O)C(c1ccncc1)N(Cc1cccs1)C(=O)Cn1nnc(-c2ccc(F)cc2)n1` (stereo not given), the Potency was inconclusive [inhibitor, single point]. In the case of `C#CCOCCOCCOCCNc1nc(N2CCN(C(=O)CCCCCCCCCCNC(=O)[C@H](CCCCN)n3cc(C)nn3)CC2)nc(N2CCN(C(=O)CCCCCCCCCCNC(=O)[C@@H]([C@H](C)O)n3cc(C)nn3)CC2)n1`, the Potency is reported as active: 2.08 µM. With `c1cc2c(c(NCc3ccncc3)c1)CCCC2` the Potency was active: 10.4 µM. In the case of `Cc1ccc(CNC(=O)Cn2c(=O)oc3ccccc32)o1`, the Potency is reported as inconclusive [inhibitor, single point]. For `CCN(CC)C(=O)c1ccc(-c2nnc(Nc3ccc(O)cc3)c3ccccc23)cc1`, the Potency was inconclusive [inhibitor, full curve, poor fit]. With `CC(C)C(NS(=O)(=O)c1cccs1)C(=O)NCCCN1CCCCCC1` (stereo not given) the Potency was inconclusive [inhibitor, partial curve, poor fit]. For `N#CC1=C(N)Oc2cc(N)ccc2C1C1CCCCC1` (stereo not given), the Potency was inconclusive [inhibitor, partial curve, poor fit]. With `O=c1[nH]n2c(=O)c3c([nH]c2c1N=Nc1cccc(Cl)c1)CCCC3` the Potency was inconclusive [inhibitor, single point]. For `Cc1cc(C)n(-c2nc3c(c(=O)[nH]c(=O)n3C)n2CC(C)C)n1`, the Potency was inconclusive [inhibitor, full curve, poor fit]. With `Cc1ccc(NC(=S)Nc2ccc(OC(F)F)c(Cl)c2)cc1Cl` the Potency was inconclusive [inhibitor, single point]. For `COc1ccc(C2C3=C(CCCC3=O)Nc3nc(-c4cc(OC)c(OC)c(OC)c4)nn32)cc1OC` (stereo not given), the Potency was inconclusive [inhibitor, full curve, poor fit]. For `Cc1ccc(S(=O)(=O)N2CCOC2CNC(=O)C(=O)NCc2ccccc2)cc1` (stereo not given), the Potency was inconclusive [inhibitor, full curve, poor fit]. For `Oc1ccc(-c2nc3ccc4ccccc4c3c3c2CCC3)cc1O`, the Potency was active: 14.7 µM. With `COc1ccc2c(c1)N(C)/C(=C/c1cccc[n+]1C)S2` the Potency was active: 0.37 µM. For `Cc1ccc(NC(=O)C2CCN(S(=O)(=O)c3ccc4c(c3)C(C)(C)C(=O)N4C)CC2)c(C)c1`, the Potency was inconclusive [inhibitor, single point]. In the case of `Cc1ccc(-n2nc(C)c(/C=N/NC(=O)c3cccnc3)c2Cl)cc1`, the Potency is reported as inconclusive [inhibitor, partial curve, poor fit]. For `O=C(NCc1ccc(Cl)cc1)C1CCN(S(=O)(=O)c2ccccc2)CC1`, the Potency was “inactive”. For `OCCCCNCc1cc(Br)ccc1OCc1ccccc1F`, the Potency was inconclusive [inhibitor, single point]. With `Cc1c(Cc2ccccc2)c(=O)oc2cc(OC(C)C(=O)NCC3CCC(C(=O)O)CC3)c(Cl)cc12` (stereo not given) the Potency was “inactive”. For `CC(C)(C)NC(=O)N1CCCN(c2ccc(C(F)(F)F)cn2)CC1`, the Potency was “inactive”. In the case of `Cc1ccc(C(=O)NCC(=O)N2CCCCCCC2)cc1C`, the Potency is reported as “inactive”. In the case of `O=C(Cc1c(F)cccc1Cl)N1CCN(S(=O)(=O)c2cccc(F)c2)CC1`, the Potency is reported as inconclusive [inhibitor, single point]. For `CCN(CC)S(=O)(=O)c1cc(C(=O)c2nccn2C)ccc1Cl`, the Potency was inconclusive [inhibitor, single point]. For `CCOc1ncccc1C(=O)OCC(=O)Nc1ccc2c(c1)OCCO2`, the Potency was “inactive”. With `COC(=O)[C@@]12CCCCN1[C@H](c1ccc(-c3ccc(C(C)=O)cc3)cc1)[C@@H]1C(=O)N(C)C(=O)[C@@H]12` the Potency was inconclusive [inhibitor, single point]. For `CCOC(=O)c1c(NC(=O)C(C)OC(=O)C2=COCCO2)sc2c1CCCC2` (stereo not given), the Potency was inconclusive [inhibitor, single point]. With `Cc1cc(C(=O)OCC(=O)c2cccc([N+](=O)[O-])c2)c2cccc(C)c2n1` the Potency was inconclusive [inhibitor, full curve]. With `O=C(c1ccco1)N1CCn2cccc2C1c1ccccc1` (stereo not given) the Potency was inconclusive [inhibitor, full curve, poor fit]. In the case of `O=C1C=C(c2ccc(OC(F)(F)F)cc2)C[C@@H](c2ccc(Cl)cc2)C1`, the Potency is reported as inconclusive [inhibitor, single point]. In the case of `Cc1ccc(S(=O)(=O)N2CCC(=O)N(C(COC(=O)Nc3ccccc3)Cc3ccccc3)CC2)cc1` (stereo not given), the Potency is reported as inconclusive [inhibitor, partial curve]. With `Cc1cccc(NC(=S)NCCSc2ccc(Cl)cc2)c1` the Potency was inconclusive [inhibitor, single point]. With `CCOC(=O)C1=NN(c2cccc(Cl)c2)C2=NC(C)=C(C(=O)OC)C(c3cccs3)N12` (stereo not given) the Potency was inconclusive [inhibitor, single point].
